Test results: PubChem BioAssay AID1346428 (National Center for Advancing Translational Sciences (NCATS), 2018)
About 1,200 (2.5%) of roughly 48,000 compounds were called active. Inconclusive results (about 2%) are left out.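 Rule for the calls: active = activation of at least 60% and not above a set upper limit (about 1 call in 100 departs from these limits); inconclusive = activation of 40% to 60%, or above that upper limit; inactive = activation under 40%.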 The list shows a part of the results.

Molecular target: Probable G-protein coupled receptor 32 (Homo sapiens) (UniProt O75388)
Chain of UniProt O75388 (O75388 whole entry, looked up): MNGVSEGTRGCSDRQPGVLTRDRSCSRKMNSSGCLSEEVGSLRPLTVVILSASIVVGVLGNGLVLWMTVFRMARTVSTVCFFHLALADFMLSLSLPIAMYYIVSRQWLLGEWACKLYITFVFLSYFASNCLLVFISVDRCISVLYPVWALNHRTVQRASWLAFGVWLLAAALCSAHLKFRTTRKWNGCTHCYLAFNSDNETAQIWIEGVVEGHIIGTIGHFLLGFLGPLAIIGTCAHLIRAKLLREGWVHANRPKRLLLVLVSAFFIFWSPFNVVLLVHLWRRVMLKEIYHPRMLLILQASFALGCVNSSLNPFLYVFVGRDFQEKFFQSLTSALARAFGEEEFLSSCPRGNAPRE
Test: qHTS for Agonists of Human Resolvin D1 Receptor DRV1; note: 0% is about no effect
Conditions: CHO-K1 GPR32 beta-arrestin PathHunter luminescence, 90 min; at 76.9 µM; active compounds read high; zero percent set by DMSO-only wells
How it was run: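 Cells are plated overnight, treated with compounds in DMSO for 90 minutes at 37 °C, and developed with PathHunter detection reagent for 1 hour before luminescence is read; signal reflects beta-arrestin binding to GPR32 in engineered CHO-K1 cells.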

activation, inactive:
COc1cccc(CNC(=O)C2CCN(C(=O)c3cnn(-c4ccccc4)c3-n3cccc3)CC2)c1 -26.2%
COc1ccc(-c2cc(C(C)=O)c(C)n2CCC(=O)NCc2ccc(C)cc2)cc1 -23.8%
Cc1ccc(NC(=O)Nc2cn(CC(C)C)c(=O)c3ccccc23)cc1N(C)C -0.0809%
Cc1ccc(-n2ncc(C(=O)NC3CCCCC3)c2C2CCN(C(=O)OC(C)(C)C)CC2)cc1 -12.7%
COc1ccccc1OCC(=O)N1CCC(c2nc3ccccc3o2)CC1 2.79%
CCN(c1ccccc1C)S(=O)(=O)c1nnc(NC(=O)c2ccco2)s1 17.7%
COc1ccc(Nc2nnc(-c3ccc(C)c(S(=O)(=O)NCCO)c3)c3ccccc23)cc1C(N)=O -31.4%
CCCS(=O)(=O)c1ncc(Cl)c(C(=O)Nc2c(C(=O)Nc3ccccc3)oc3ccccc23)n1 41.3%
Cc1ccc(NC(=O)c2c(C)oc3c2C2=NCCN2C=N3)cc1F 28.7%
O=c1ccc2c(OCCCCc3ccccc3)c3ccoc3cc2o1 -37.9%
COc1ccc(N(C)C(=O)c2cc3c(s2)-c2c(C)cccc2OC3)c(OC)c1 -29.3%
COc1ccc(-c2c(C)nn3c(C(F)(F)F)cc(-c4ccccc4)nc23)cc1OC -13.6%
COc1ccc(CNc2nc3c(-c4cccc(F)c4)nnn3c3ccccc23)cc1 11.5%
CN(CC(=O)NCc1ccc(F)cc1)S(=O)(=O)c1ccc2[nH]c3c(c2c1)CCCC3 42%
COC(=O)c1cc2sccc2n1CC(=O)Nc1ccc(OC)c(OC)c1 -4.93%
Cc1cccn2c(=O)cc(CSc3nnc(NC(=O)COc4ccccc4)s3)nc12 1.13%
NCC(O)c1ccc(O)c(O)c1 (stereo not drawn) 0.45%
O=C(c1ccc2c(c1)N(Cc1cccc(F)c1)C(=O)c1ccccc1S2)N1CCC2(CC1)OCCO2 -30.6%
O=C(Cn1cccc1C(=O)c1ccccc1)NCc1ccccc1Cl -9.35%
O=C(Nc1cccnc1)c1cc(-c2ccc(Cl)cc2)on1 20.6%
Cc1c(Cl)cccc1NC(c1ccc(F)cc1)c1nnc(-c2ccccc2)o1 (stereo not drawn) -2.55%
COc1ccc(C2=C(N3CCN(c4cc(C)ccc4C)CC3)c3ccccc3C2=O)cc1 -6.16%
CCc1ccc(-n2c(=O)c3sc4ccccc4c3n(CC(=O)NCc3ccccc3)c2=O)cc1 14.7%
COC(=O)c1ccc(NC(=O)C(=O)NCC(c2cccnc2)N2CCc3ccccc32)cc1 (stereo not drawn) -0.448%
Cc1cccc(C)c1NC(=O)CSc1nc2ccccc2c2nc(CCc3c(C)n[nH]c3C)nn12 -13%
Cc1c(Cl)cccc1NC(=O)Cn1nnc(-c2nc(-c3ccccc3)no2)c1N -7.91%
Cc1c(NC(=O)c2sc3ccccc3c2Cl)cccc1-c1nc2ccccc2o1 6.35%
CCCOc1ccc(C(=O)Nc2ccc3oc(-c4ccc(N(C)C)cc4)nc3c2)cc1 5.18%
CCC1=C[C@@H]2CN(C1)Cc1c([nH]c3ccccc13)[C@@](C(=O)OC)(c1cc3c(cc1OC)N(C)[C@H]1[C@@](O)(C(=O)OC)[C@H](OC(C)=O)[C@]4(CC)C=CCN5CC[C@]31[C@@H]54)C2 -8.14%
CCn1cc(C(=O)NCCc2ccc(C)cc2)c(=O)c2cc(S(=O)(=O)N3CCC(C)CC3)ccc21 -19.8%
CCCOc1ccc(OC(=O)c2cn(-c3ccc(OC)cc3)c(=O)c3ccccc23)cc1 -8.95%
COc1cc(NC(=O)c2nc3ccccc3n(C)c2=O)cc(OC)c1OC 12.8%
CCOc1ccccc1NC(=O)C1=C(C)Nc2ncnn2C1c1cccs1 (stereo not drawn) 17.8%
Cc1cccc(N2CCN(C(=O)c3ccc4c(Cl)c5c(nc4c3)CCCC5)CC2)c1C -21.8%
COc1cccc(-c2nn3c(=O)cc(CN4CCN(C(=O)/C=C/c5ccccc5)CC4)nc3s2)c1 46.4%
COc1ccc(NC(=O)Cn2nc(C(F)(F)F)c3c2CCCC3)cc1OC 28.5%
CC(=O)c1cccc(NC(=O)c2cc(C)nc3c2c(C)nn3-c2cccc(Cl)c2C)c1 -6.14%
O=C(OCc1cc(=O)n2nc(C3CC3)sc2n1)c1ccccc1Cl -46.3%
COc1ccc(CNC(=O)C2=CC(c3cccc(OC)c3)=NS(=O)(=O)N2C)cc1 -24.5%
Cc1ccc(CCNC(=O)CCS(=O)(=O)c2cc3c(cc2Cl)NC(=O)CO3)cc1 3.71%
CC(C)NC(=O)CN1C(=O)c2cccnc2Sc2ccccc21 -14.1%
Cc1ccc(-c2nc(-c3cc4cccc(OCc5ccccc5F)c4oc3=O)no2)cc1 -1.66%
COC(=O)c1c(-c2ccc(Cl)cc2)noc1N1CCN(c2ccc(F)cc2)CC1 -14.6%
CC(C)c1cc(C(=O)NCc2ccccc2)no1 -2.86%
CCOc1ccc(CNC(=O)CCS(=O)(=O)c2ccc3c(c2)oc(=O)n3C)cc1 11.1%
COc1ccc(NC(=O)c2csnn2)cc1 3.1%
Cc1ccc(NC(=O)Cn2c(=O)n(Cc3ccc(C(=O)NCc4ccc5c(c4)OCO5)cc3)c(=O)c3ccccc32)cc1 19.9%
O=S(=O)(Nc1ccc(C(F)(F)F)cc1)c1ccc2c(c1)OCCO2 13%
COc1ccccc1N1CCN(Cc2nnc(-c3ccccc3C)o2)CC1 -7.15%
COCCCn1c(=O)c2sccc2n2c(CCCC(=O)Nc3cccc(C(F)(F)F)c3)nnc12 -13.2%
O=C(c1ccc2c(c1)N(Cc1ccc(Cl)cc1)C(=O)c1ccccc1S2=O)N1CCC(Cc2ccccc2)CC1 (stereo not drawn) -1.17%
O=C(NCCCc1nc2ccccc2n1Cc1cccc(Cl)c1)C1CCCCC1 -25.7%
CCOC(=O)c1cccc(NC(=O)c2ccc3nc(CCc4ccccc4)oc3c2)c1 -13.3%
